Among all 39,000 compounds or so, about 220 (0.56%) showed activity. The list shows a part of the results.
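Further: static incubation at 37 °C against the wild-type strain, values averaged over two biological replicates.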

The experiment relates to Escherichia coli K-12 BW25113. The experiment can be described thus: relative growth (OD600 normalised to plate interquartile mean) (fraction); higher = less growth inhibition, active = 0.2 or less. The note with it: 50 µM; LB; incubation time: overnight (16-24 h).
Take `O=C(C[C@@H]1CC[C@@H]2[C@H](COC[C@H](O)CN2C(=O)c2ccncc2)O1)NCc1ccc(-c2ccccc2)cc1`: the relative growth is inactive: 0.917. `CCCNC(=O)N1C[C@@H](O)COC[C@@H]2O[C@@H](CC(=O)NCc3ccncn3)CC[C@H]21`: the relative growth was inactive: 0.989. With `NNC(=O)C1CCCC1` the figure was inactive: 0.998. As to `CCO[C@H]1OC(C(=O)N2CCOCC2)=C[C@@H](c2ccccc2)[C@@H]1CCCOC(=O)NCCCCCC(=O)NO`, the relative growth was inactive: 0.983.

Take `Cc1cc(C(=O)Nc2cccc3c2O[C@H](CN(C)C(=O)NC2CCCCC2)[C@H](C)CN([C@H](C)CO)C3=O)n(C)n1`: the relative growth was inactive: 1. Take `C[C@@H]1CCCCO[C@@H](CN(C)S(=O)(=O)c2cn(C)cn2)[C@@H](C)CN([C@H](C)CO)C(=O)c2cc(NC(=O)c3ccncc3)ccc2O1`: the relative growth is inactive: 1.02. In the case of `COc1ccc(CN(C)C[C@@H]2Oc3ccc(NC(=O)CCCN(C)C)cc3C(=O)N([C@@H](C)CO)C[C@H]2C)cc1`, the relative growth is inactive: 1.01. With `O=P(O)(O)C(Sc1ccc(Cl)cc1)P(=O)(O)O` the figure was inactive: 0.973. As for `C[C@@H]1CN([C@H](C)CO)C(=O)c2cc(NC(=O)Nc3cccc4ccccc34)ccc2O[C@H]1CN(C)S(=O)(=O)c1ccccc1`, the relative growth was inactive: 1.02. As for `COc1ccc(-c2ccccn2)cc1`, the figure is inactive: 0.987.

For the molecule `Cc1noc(C)c1S(=O)(=O)N(C)C[C@@H]1OCCCC[C@@H](C)Oc2ccc(NC(=O)Nc3ccc(C(F)(F)F)cc3)cc2C(=O)N([C@H](C)CO)C[C@H]1C`, the relative growth is inactive: 0.998.

As to `C[C@H](CO)N1C[C@H](C)[C@H](CN(C)C(=O)Nc2ccc(C(F)(F)F)cc2)Oc2ccc(NC(=O)Cc3ccccc3)cc2CC1=O`, the relative growth is inactive: 0.985. For the molecule `C[C@H](O)C#Cc1cnc2c(c1)C(=O)N([C@@H](C)CO)C[C@H](C)[C@@H](CN(C)C(=O)CN1CCOCC1)O2`, the relative growth is inactive: 0.985. For the molecule `CC1=CC(=O)c2ccccc2C1=O`, the relative growth is inactive: 0.786. On to `C[C@@H]1CN([C@@H](C)CO)C(=O)c2cc(NC(=O)c3ccncc3)ccc2O[C@@H](C)CCCCO[C@@H]1CN(C)CC1CCCCC1`, for which the relative growth was inactive: 1. As for `C[C@@H]1CN([C@H](C)CO)C(=O)CCCn2nncc2CO[C@@H]1CN(C)S(=O)(=O)c1cccc(C#N)c1`, the figure is inactive: 1; as for `O=C(C[C@@H]1CC[C@@H](NC(=O)CN2CCOCC2)[C@H](CO)O1)NCCc1ccccc1`, inactive: 0.994; as for `Cc1ccc(S(=O)(=O)Nc2ccc3c(c2)C(=O)N([C@H](C)CO)C[C@@H](C)[C@@H](CN(C)S(=O)(=O)c2ccc(F)cc2)OCCCC[C@@H](C)O3)cc1`, inactive: 1.01.

On to `C[C@H](CO)N1C[C@H](C)[C@@H](CN(C)Cc2ccc(C(=O)O)cc2)OCCCC[C@H](C)Oc2ccc(NC(=O)Cc3ccccc3)cc2C1=O`, for which the relative growth is inactive: 0.978. For `COc1ccccc1CNC(=O)C[C@@H]1C[C@H]2c3cc(NS(=O)(=O)c4ccc(F)cc4)ccc3O[C@H]2[C@H](CO)O1`, the relative growth is inactive: 0.83. With `C[C@@H]1CN([C@@H](C)CO)S(=O)(=O)c2ccc(C#CCC3CCCC3)cc2O[C@H]1CN(C)C(=O)c1cnccn1`, the relative growth was inactive: 1.04. As to `COc1ccc(NC(=O)N(C)C[C@@H]2Oc3ccc(NC(=O)CCCCCC(=O)Nc4ccccc4N)cc3C(=O)N([C@H](C)CO)C[C@H]2C)cc1`, the relative growth was inactive: 0.982. As for `C[C@H](CO)N1C[C@H](C)[C@@H](CN(C)Cc2ccc(Oc3ccccc3)cc2)Oc2ccc(NC(=O)C3CC3)cc2CC1=O`, the figure is inactive: 0.977; as for `O=C(C[C@@H]1CC[C@@H]2[C@H](COC[C@H](O)CN2S(=O)(=O)c2ccc(F)cc2)O1)N1CCc2ccccc2C1`, inactive: 0.997.

With `C[C@@H]1CN([C@H](C)CO)S(=O)(=O)c2ccc(C#Cc3ccccc3)cc2O[C@H]1CN(C)S(=O)(=O)c1ccccc1F`, the relative growth is inactive: 1.03. `COc1ccc(NC(=O)N(C)C[C@@H]2OCCCC[C@H](C)Oc3ccc(NS(=O)(=O)c4ccc(Cl)cc4)cc3C(=O)N([C@H](C)CO)C[C@H]2C)cc1`: the relative growth is inactive: 1.01.

Turning to `NCCCc1ccc2c(c1)OCO2`, the relative growth is inactive: 0.913.

`O=C(CN1CCOCC1)NCC[C@H]1CC[C@H](NC(=O)c2ccc3c(c2)OCO3)[C@H](CO)O1`: the relative growth is inactive: 1.03.

Turning to `C[C@@H]1CCCCO[C@@H](CN(C)C(=O)Nc2ccc3c(c2)OCO3)[C@@H](C)CN([C@@H](C)CO)C(=O)c2cc(NC(=O)Nc3cccc4ccccc34)ccc2O1`, the relative growth is inactive: 1.04.

For the molecule `Cn1cnc(S(=O)(=O)N[C@@H]2CC[C@H](CC(=O)N3CCN(c4ccccc4)CC3)O[C@H]2CO)c1`, the relative growth is inactive: 1.01. In the case of `Cc1noc(C)c1NC(=O)Nc1ccc2c(c1)C(=O)N([C@H](C)CO)C[C@H](C)[C@H](CN(C)S(=O)(=O)c1cccs1)OCCCC[C@H](C)O2`, the relative growth is inactive: 1.02. With `C[C@@H](O)CN1CCN(S(=O)(=O)C2CC2)CC1` the figure was inactive: 0.977; with `CCCC(=O)Nc1ccc2c(c1)OC[C@@H](C)N(S(=O)(=O)c1cn(C)cn1)C[C@H](C)[C@@H](OC)CN(C)C2=O`, inactive: 0.968. `CC(C)[C@H](NC(=O)[C@H](CC(=O)O)NC(=O)[C@H](CCCCN)NC(=O)[C@@H](N)CCCNC(=N)N)C(=O)N[C@@H](Cc1ccc(O)cc1)C(=O)O`: the relative growth was inactive: 1. Take `C[C@@H]1CN([C@H](C)CO)C(=O)c2cc(NC(=O)c3ccncc3)ccc2O[C@H]1CN(C)S(=O)(=O)c1cccs1`: the relative growth was inactive: 1.01. As for `C=CC(C)(O)CCC1C(C)(O)CCC2C(C)(C)CCCC21C` (stereo not given), the figure is inactive: 0.953; as for `CO[C@@H]1CN(C)C(=O)c2cc(NS(=O)(=O)c3cn(C)cn3)ccc2OC[C@H](C)N(CC2CC2)C[C@@H]1C`, inactive: 1.03; as for `O=C(O)CCC(=O)O`, inactive: 0.976. As for `Cc1noc(C)c1NC(=O)N(C)C[C@@H]1OCCCC[C@H](C)Oc2ccc(NC(=O)C3CCCCC3)cc2C(=O)N([C@@H](C)CO)C[C@H]1C`, the relative growth is inactive: 0.983. As for `C[C@H](CO)N1C[C@H](C)[C@@H](CN(C)Cc2ccc3c(c2)OCO3)OCCCC[C@H](C)Oc2ccc(NC(=O)NC3CCCCC3)cc2C1=O`, the relative growth was inactive: 0.995.

The record behind these values is the supplement of paper PMC9446081.
